The text below walks through data of the RNAGym collection of RNA variant scans (doi:10.1093/nar/gkz1192).

Sequences and labels used below:
B1: CPEB3 Ribozyme (parent)
chain: UAACAGGGGGCCACAGCAGAAGCGUUCACGUCGCAGCCCCUGUCAGAUUCUGGUGAAUCUGCGAAUUCUGCUGUAUAUCUC

The source gives no read counts; variants with many changes may rest on few reads.

The data set covers variants of B1. The data set is described as follows: self-cleavage, relative activity (ratio to wild type); higher = more cleavage; in vitro, sequencing. In outline: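 Relative activity compares each variant's cleaved/total read fraction with that of the unmutated ribozyme. To get these fractions, barcoded CPEB3 ribozyme libraries from rounds of error-prone PCR were transcribed with T7 RNA polymerase for 5 hours at 37°C and then given 15 min of DNase I treatment before EDTA was added. The RNAs were reverse transcribed with template switching and sequenced on Illumina, and DNA sequencing linked barcodes to variants. A minimum of 5 reads applied, and three batches were averaged.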
In the case of A18C G22A U31C A56C, the self-cleavage came out at 0.06.
Regarding A18G A20C C32A U69A, the self-cleavage came to 0.24.
Turning to A18C G33A U48C U49C U54C C62U, the self-cleavage was found to be 0.09.
To A18C U25C U69A U76A belongs 0.15; to A18G A20G U66C, 0.56; to A18C A21G U54C U76A, 0.22.
With A18C U41C U69C the figure was 0.27; with C17U U43C U60A A75U, 0.08.
With A18G A20G C34G U48C U80C the figure was 0.39; with A18C A28C G36A C71U, 0.07; with A18C U26A G30U C38U U67C, 0.05.
Consider C17U U41C G46U A65G, for which the self-cleavage came out at 0.1.
To A18G A20G U58C A64G U74A belongs 0.19; to C17U U69A U72A, 0.15; to A18C U41C A57C U60C U67A, 0.02.
As for C17U U25C U48C A64G U78C, the self-cleavage worked out at 0.18.
With A18C G30A A35G the figure was 0.21; with A18C C32U A47G C50A U54C, 0.11.
Take A18C A28G U72A: the self-cleavage was 0.15.
For A18G A20G A56U A77G U80A, the self-cleavage is 0.15.
With A18C C40U A77G, the self-cleavage came out at 0.36.
With A18C U26C A56U A64U, the self-cleavage worked out at 0.18.
On to C17U U26C A57G A75G, for which the self-cleavage came out at 0.08.
To C17U U26C A56G U72A belongs 0.47.
In the case of C17U U49C U76A, the self-cleavage came out at 0.15.
For the variant A18C G22C A28U U78C, the self-cleavage is 0.06.
With A18G A20G A45U A56G U60C the figure was 0.11.
To A18G A20G U41C U60C belongs 0.13; to C17U U25C A57G U74C, 0.27.
With A18C G19U A35U C40G U49C the figure was 0.07; with C17U U25A G52A, 0.27; with A18C C32U A45C A65G, 0.08.
With A18G A20G C32U A45G, the self-cleavage was found to be 0.06.
To A18G A20G G36U U80A belongs 0.09; to A18C U43C U51C A64U U78C, 0.1.
Consider A18C C32U U41C A45G U66C, for which the self-cleavage was determined as 0.04.
Regarding A18G A20G A45U, the self-cleavage is 0.36.
Take A18C C32U A35G A45G: the self-cleavage turned out to be 0.04.
With C17U C44A A56G U67C U78C the figure was 0.11; with A18G A20G A47U A56G, 0.3.
To C17U U41A C44U G63A belongs 0.12.
With A18C C32U A75G the figure was 0.06.
C17U U41C C44A A45G A65G: the self-cleavage is 0.1.
With C17U G24C A28U U51A U67G the figure was 0.1; with A18C A28U U51G U54C, 0.18.
As to C17U U51C U72C, the self-cleavage came to 0.46.
Turning to A18C A28C U51C A56G U80C, the self-cleavage was 0.07.
To C17U U25C U41A U67C U78A belongs 0.08; to A18C A28U U41C, 0.17; to A18G A20C A35U, 0.11.
With A18C C27U U51C A56G U80C, the self-cleavage turned out to be 0.18.
With A18C A21G A56U U58A the figure was 0.05.
As to C17U U51C U80G, the self-cleavage was found to be 0.79.
To A18G A20G G24A U41A G53C U78C belongs 0.08; to A18G A20G U25C A47G, 0.26; to C17U U25C U48A U67C U69A, 0.05.
With A18C G33A U43C U66C U69C U72C U74A the figure was 0.09; with A18G A20G A28U, 0.35.
As for C17U U31C U60C A64U A77G, the self-cleavage turned out to be 0.17.
To C17U U25C U49A U72C belongs 0.08; to C17U U43C U74C, 0.46; to C17U U25C A45G U60A, 0.18.
With C17U U54C U76C the figure was 0.75.
To A18C G22A A35G belongs 0.06; to A18G A20G A21G G30A, 0.45.
Turning to C17U U26A A35U A64U, the self-cleavage was 0.28.
To A18C A28G C32U U49C G52C U60A belongs 0.05; to A18C U43C C71G A77U, 0.06; to A18C A56U C68A, 0.12.
For the variant A18C U48C G52A, the self-cleavage turned out to be 0.33.
To A18G A20G A45U U51C belongs 0.1; to A18C U31C U54C C59A, 0.1; to C17U U26C U54A U80C, 0.15.
With A18C A56G U72C, the self-cleavage came to 0.26.
With A18C U25C U31A U43A C59U U67A the figure was 0.18; with A18C G33A U48C U49C C62U C68A, 0.12; with C17U U66C A77U, 0.32.
In the case of A18C U51C U69C A77G U80C, the self-cleavage worked out at 0.27.
For the variant A18C G42A G53A, the self-cleavage was 0.09.
On to C17U U51A A65G U76C, for which the self-cleavage came out at 0.35.
A18G A20C U58A U72C: the self-cleavage came to 0.08.
As to A18C U41A U48C, the self-cleavage was 0.23.
For A18C U25C U51A U72C, the self-cleavage came out at 0.13.
